Data from the supplement of paper PMC8728848.
Some of the results follow.

What was measured:
Assay in all cases: glycan array binding signal (z-score within array); higher = stronger binding
Details in all cases: glycan notation: IUPAC condensed, linker removed
[1] = molecular target: GlcNAc(b1-3)Gal(b1-3)GalNAc
Summary of the method: (§1)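 Glycan array binding is given as a within-array Z-score, which can be read as non-binding when negative. The arrays, 3228 of them, came from the Consortium for Functional Glycomics database and were retained only where the protein sequence was available. Z-scores were averaged across arrays of the same protein sequence at different concentrations or buffers and across linkers.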

GlcNAc(b1-3)Gal(b1-4)Glc = molecular target: GlcNAc(b1-3)Gal(b1-4)Glc
Summary of the method: as §1

[2] = molecular target: GlcNAc(b1-3)Gal(b1-4)GlcNAc
Summary of the method: as §1

[3] = molecular target: GlcNAc(b1-3)Gal(b1-4)GlcNAc(b1-3)Gal(b1-4)GlcNAc
Summary of the method: as §1

GlcNAc(b1-3)GalNAc = molecular target: GlcNAc(b1-3)GalNAc
Summary of the method: as §1

GlcNAc(b1-3)Man = molecular target: GlcNAc(b1-3)Man
Summary of the method: as §1

[4] = molecular target: GlcNAc(b1-3)[GlcNAc(b1-4)][GlcNAc(b1-6)]GlcNAc
Summary of the method: as §1

[5] = molecular target: GlcNAc(b1-3)[GlcNAc(b1-6)]Gal(b1-4)GlcNAc
Summary of the method: as §1

[6] = molecular target: GlcNAc(b1-3)[GlcNAc(b1-6)]GalNAc
Summary of the method: as §1

[7] = molecular target: GlcNAc(b1-4)Gal(b1-4)GlcNAc
Summary of the method: as §1

GlcNAc(b1-4)GlcNAc = molecular target: GlcNAc(b1-4)GlcNAc
Summary of the method: as §1

[8] = molecular target: GlcNAc(b1-4)GlcNAc(b1-4)GlcNAc
Summary of the method: as §1

[9] = molecular target: GlcNAc(b1-4)GlcNAc(b1-4)GlcNAc(b1-4)GlcNAc(b1-4)GlcNAc
Summary of the method: as §1

[10] = molecular target: GlcNAc(b1-4)GlcNAc(b1-4)GlcNAc(b1-4)GlcNAc(b1-4)GlcNAc(b1-4)GlcNAc
Summary of the method: as §1

[11] = molecular target: GlcNAc(b1-4)[GlcNAc(b1-6)]GalNAc
Summary of the method: as §1

[12] = molecular target: GlcNAc(b1-6)Gal(b1-4)GlcNAc
Summary of the method: as §1

GlcNAc(b1-6)GalNAc = molecular target: GlcNAc(b1-6)GalNAc
Summary of the method: as §1

GlcNAc3Prop(b1-4)GlcNAc = molecular target: GlcNAc3Prop(b1-4)GlcNAc
Summary of the method: as §1

[13] = molecular target: GlcNAc6S(b1-3)Gal(b1-4)GlcNAc
Summary of the method: as §1

Kdn(a2-3)Gal(b1-3)GalNAc = molecular target: Kdn(a2-3)Gal(b1-3)GalNAc
Summary of the method: as §1

Kdn(a2-3)Gal(b1-3)GlcNAc = molecular target: Kdn(a2-3)Gal(b1-3)GlcNAc
Summary of the method: as §1

Kdn(a2-3)Gal(b1-4)Glc = molecular target: Kdn(a2-3)Gal(b1-4)Glc
Summary of the method: as §1

Kdn(a2-3)Gal(b1-4)GlcNAc = molecular target: Kdn(a2-3)Gal(b1-4)GlcNAc
Summary of the method: as §1

[14] = molecular target: Kdn(a2-3)Gal(b1-4)[Fuc(a1-3)]GlcNAc
Summary of the method: as §1

Kdn(a2-6)Gal(b1-4)GlcNAc = molecular target: Kdn(a2-6)Gal(b1-4)GlcNAc
Summary of the method: as §1

[15] = molecular target: Man(a1-2)Man(a1-2)Man(a1-3)Man
Summary of the method: as §1

[16] = molecular target: Man(a1-2)Man(a1-2)Man(a1-6)[Man(a1-3)]Man
Summary of the method: as §1

Man(a1-2)Man(a1-3)Man = molecular target: Man(a1-2)Man(a1-3)Man
Summary of the method: as §1

[17] = molecular target: Man(a1-2)Man(a1-3)[Man(a1-2)Man(a1-6)]Man
Summary of the method: as §1

[18] = molecular target: Man(a1-2)Man(a1-3)[Man(a1-2)Man(a1-6)]Man(a1-6)[Man(a1-2)Man(a1-2)Man(a1-3)]Man
Summary of the method: as §1

[19] = molecular target: Man(a1-2)Man(a1-3)[Man(a1-2)Man(a1-6)]Man(a1-6)[Man(a1-2)Man(a1-2)Man(a1-3)]Man(b1-4)GlcNAc(b1-4)GlcNAc
Summary of the method: as §1

[20] = molecular target: Man(a1-2)Man(a1-3)[Man(a1-6)]Man(a1-6)[Man(a1-2)Man(a1-3)]Man(b1-4)GlcNAc(b1-4)GlcNAc
Summary of the method: as §1

[21] = molecular target: Man(a1-2)Man(a1-6)[Man(a1-3)]Man(a1-6)[Man(a1-2)Man(a1-2)Man(a1-3)]Man
Summary of the method: as §1

[22] = molecular target: Man(a1-2)Man(a1-6)[Man(a1-3)]Man(a1-6)[Man(a1-2)Man(a1-2)Man(a1-3)]Man(b1-4)GlcNAc(b1-4)GlcNAc
Summary of the method: as §1

Man(a1-3)[Man(a1-6)]Man = molecular target: Man(a1-3)[Man(a1-6)]Man
Summary of the method: as §1

[23] = molecular target: Man(a1-3)[Man(a1-6)]Man(a1-6)[Man(a1-2)Man(a1-3)]Man(b1-4)GlcNAc(b1-4)GlcNAc
Summary of the method: as §1

[24] = molecular target: Man(a1-3)[Man(a1-6)]Man(a1-6)[Man(a1-3)]Man
Summary of the method: as §1

[25] = molecular target: Man(a1-3)[Man(a1-6)]Man(a1-6)[Man(a1-3)]Man(b1-4)GlcNAc(b1-4)GlcNAc
Summary of the method: as §1

[26] = molecular target: Man(a1-3)[Man(a1-6)]Man(b1-4)GlcNAc(b1-4)GlcNAc
Summary of the method: as §1

Man(a1-6)Man = molecular target: Man(a1-6)Man
Summary of the method: as §1

Man(b1-4)GlcNAc = molecular target: Man(b1-4)GlcNAc
Summary of the method: as §1

Neu5Ac(a2-3)Gal = molecular target: Neu5Ac(a2-3)Gal
Summary of the method: as §1

[27] = molecular target: Neu5Ac(a2-3)Gal(b1-3)GalNAc
Summary of the method: as §1

[28] = molecular target: Neu5Ac(a2-3)Gal(b1-3)GalNAc(b1-3)Gal(a1-4)Gal(b1-4)Glc
Summary of the method: as §1

[29] = molecular target: Neu5Ac(a2-3)Gal(b1-3)GalNAc(b1-3)Gal(b1-4)GlcNAc
Summary of the method: as §1

B1: Mincle (Homo sapiens), Q9ULY5 (protein)
chain: MNSSKSSETQCTERGCFSSQMFLWTVAGIPILFLSACFITRCVVTFRIFQTCDEKKFQLPENFTELSCYNYGSGSVKNCCPLNWEYFQSSCYFFSTDTISWALSLKNCSAMGAHLVVINSQEEQEFLSYKKPKMREFFIGLSDQVVEGQWQWVDGTPLTKSLSFWDVGEPNNIATLEDCATMRDSSNPRQNWNDVTCFLNYFRICEMVGINPLNKGKSL
- glycan array binding signal (z-score) [1]: -0.236
- glycan array binding signal (z-score) (GlcNAc(b1-3)Gal(b1-4)Glc): -0.3
- glycan array binding signal (z-score) [2]: -0.245
- glycan array binding signal (z-score) [3]: -0.06
- glycan array binding signal (z-score) (GlcNAc(b1-3)GalNAc): -0.451
- glycan array binding signal (z-score) (GlcNAc(b1-3)Man): -0.399
- glycan array binding signal (z-score) [4]: -0.38
- glycan array binding signal (z-score) [5]: -0.457
- glycan array binding signal (z-score) [6]: -0.082
- glycan array binding signal (z-score) [7]: -0.45
- glycan array binding signal (z-score) (GlcNAc(b1-4)GlcNAc): -0.246
- glycan array binding signal (z-score) [8]: -0.246
- glycan array binding signal (z-score) [9]: 0.253
- glycan array binding signal (z-score) [10]: -0.352
- glycan array binding signal (z-score) [11]: -0.437
- glycan array binding signal (z-score) [12]: -0.471
- glycan array binding signal (z-score) (GlcNAc(b1-6)GalNAc): -0.548
- glycan array binding signal (z-score) (GlcNAc3Prop(b1-4)GlcNAc): -0.102
- glycan array binding signal (z-score) [13]: -0.321
- glycan array binding signal (z-score) (Kdn(a2-3)Gal(b1-3)GalNAc): 0.09
- glycan array binding signal (z-score) (Kdn(a2-3)Gal(b1-3)GlcNAc): -0.522
- glycan array binding signal (z-score) (Kdn(a2-3)Gal(b1-4)Glc): -0.346
- glycan array binding signal (z-score) (Kdn(a2-3)Gal(b1-4)GlcNAc): -0.119
- glycan array binding signal (z-score) [14]: -0.369
- glycan array binding signal (z-score) (Kdn(a2-6)Gal(b1-4)GlcNAc): -0.608
- glycan array binding signal (z-score) [15]: -0.471
- glycan array binding signal (z-score) [16]: 0.06
- glycan array binding signal (z-score) (Man(a1-2)Man(a1-3)Man): -0.395
- glycan array binding signal (z-score) [17]: 0.813
- glycan array binding signal (z-score) [18]: 5
- glycan array binding signal (z-score) [19]: 0.67
- glycan array binding signal (z-score) [20]: -0.26
- glycan array binding signal (z-score) [21]: 0.047
- glycan array binding signal (z-score) [22]: -0.122
- glycan array binding signal (z-score) (Man(a1-3)[Man(a1-6)]Man): -0.323
- glycan array binding signal (z-score) [23]: 0.708
- glycan array binding signal (z-score) [24]: -0.176
- glycan array binding signal (z-score) [25]: 0.253
- glycan array binding signal (z-score) [26]: 1.08
- glycan array binding signal (z-score) (Man(a1-6)Man): -0.037
- glycan array binding signal (z-score) (Man(b1-4)GlcNAc): -0.53
- glycan array binding signal (z-score) (Neu5Ac(a2-3)Gal): 0.067
- glycan array binding signal (z-score) [27]: 0.345
- glycan array binding signal (z-score) [28]: -0.553
- glycan array binding signal (z-score) [29]: 0.287
